# The list shows a part of the results.
# Molecular target: no compound (DMSO)
# Test: log2 fold change of degron read counts, EGFP-low vs EGFP+ sorted cells; higher = lower degron-EGFP level without compound (poor expression or instability)
# Details: compound: DMSO control; 18 h
# 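Note: jurkat cells carrying a lentiviral library of mutant zinc finger degrons fused to EGFP plus mCherry, mCherry+ cells FACS sorted, degron abundance counted by next-generation sequencing.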
row,Sequence,log2 fold change of degron read counts
1,FCCSVCGHSFTQKGNLLRHIKL,-0.576
2,FICPQCGAPFTQKGNLLRHIKL,-0.576
3,FNCDQCGAHFTQKGNLLRHIKL,-0.895
4,FVCEICGRPFTQKGNLLRHIKL,-1.44
5,FMCSVCGHLFTQKGNLLRHIKL,0.155
6,FCCSVCGHGFTQKGNLLRHIKL,-0.225
7,LSCNQCGFFCTQKGNLLRHIKL,1.55
8,LHCEICGFNCTQKGNLLRHIKL,0.152
9,FNCPVCGAFFTQKGNLLRHIKL,0.451
10,FMCEVCGAKFTQKGNLLRHIKL,-1.73
11,FICEICGRVFTQKGNLLRHIKL,-0.722
12,FECNQCGHIFTQKGNLLRHIKL,-0.558
13,FDCDQCGAHFTQKGNLLRHIKL,-2.12
14,FLCPICGANFTQKGNLLRHIKL,-0.26
15,FQCPICGANFTQKGNLLRHIKL,0.34
16,FACNQCGRQFTQKGNLLRHIKL,-0.406
17,FFCDICGARFTQKGNLLRHIKL,-0.418
18,FKCNVCGAYFTQKGNLLRHIKL,-0.669
19,FVCDQCGAHFTQKGNLLRHIKL,-1.53
20,FDCDICGADFTQKGNLLRHIKL,-0.58
21,LHCNQCGFRCTQKGNLLRHIKL,0.827
22,FNCEQCGAPFTQKGNLLRHIKL,-1.65
23,FTCEQCGATFTQKGNLLRHIKL,-2.67
24,FHCNVCGALFTQKGNLLRHIKL,-0.0333
25,FQCDVCGAQFTQKGNLLRHIKL,-1.92

row,Sequence,log2 fold change of degron read counts
1,FSCNICGACFTQKGNLLRHIKL,-0.721
2,FNCNICGASFTQKGNLLRHIKL,-0.587
3,FMCPICGHEFTQKGNLLRHIKL,0.0313
4,FRCEICGRFFTQKGNLLRHIKL,-0.128
5,FTCEICGHKFTQKGNLLRHIKL,-1.38
6,LICNQCGFLCTQKGNLLRHIKL,1.18
7,FSCNQCGHCFTQKGNLLRHIKL,-0.112
8,FRCEQCGAHFTQKGNLLRHIKL,-2.25
9,FVCEQCGAQFTQKGNLLRHIKL,-2.77
10,FCCNICGADFTQKGNLLRHIKL,-0.524
11,FGCNICGAKFTQKGNLLRHIKL,-0.268
12,FNCSVCGHRFTQKGNLLRHIKL,0.193
13,FNCEQCGAKFTQKGNLLRHIKL,-2.8
14,LHCPICGFWCTQKGNLLRHIKL,1.69
15,FHCDICGAGFTQKGNLLRHIKL,-1.08
16,FLCEICGAAFTQKGNLLRHIKL,-1.6
17,FYCPQCGACFTQKGNLLRHIKL,0.00336
18,FKCPVCGALFTQKGNLLRHIKL,-0.444
19,FDCNVCGAGFTQKGNLLRHIKL,-0.947
20,LFCNQCGFYCTQKGNLLRHIKL,2.07
21,LGCEICGFHCTQKGNLLRHIKL,0.409
22,FACNICGAAFTQKGNLLRHIKL,-1.2
23,FQCDVCGAYFTQKGNLLRHIKL,-0.944
24,FKCNQCGADFTQKGNLLRHIKL,-1.26
25,FTCDVCGAHFTQKGNLLRHIKL,-2.04

# From the supplement of paper PMC12645437, “Orthogonal IMiD-Degron Pairs Induce Selective Protein Degradation in Cells” (ACS Chemical Biology, 2025)
